According to the RNAGym collection of RNA variant scans (doi:10.1093/nar/gkz1192):
Read counts are not given, so values of variants with three or more changes are uncertain.

B1: CPEB3 Ribozyme (parent)
chain: UAACAGGGGGCCACAGCAGAAGCGUUCACGUCGCAGCCCCUGUCAGAUUCUGGUGAAUCUGCGAAUUCUGCUGUAUAUCUC

Variants of: B1
Assay: self-cleavage, relative activity (ratio to wild type); higher = more cleavage; in vitro, sequencing
Summary of the method: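 After error-prone PCR and barcoding, CPEB3 ribozyme mutant libraries were transcribed with T7 RNA polymerase at 37°C for 5 hours, then given 15 min with DNase I before an EDTA stop, and they cleaved during both steps. Reverse transcription with template switching preceded Illumina sequencing. Relative activity divides a variant's cleaved/total read fraction by the unmutated ribozyme's. At least 5 reads were required per variant, and three batches were averaged.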

Variant | self-cleavage
A13G G24A U48C U60A | 0.08
A13C U26C A35U A64U U66C | 0.11
A13G C34G U51C A57G | 0.09
A13G A47G U54C U58A U67C | 0.05
C12U U51C A57G U72G A77C | 1.14
C12U C14U A21G U49C | 0.17
A13G U25A U60A U78C | 0.42
A13G G24A A56G U66C G73A | 0.18
A13G A20U A56G | 0.13
C12U C50U U67G U69C | 0.24
A13C A21G U25C G42A U43C U72A | 0.06
A13G A20G U31C U41A U80C | 0.11
A13G A15U U80G | 0.8
A13G G24A U43C U60A U67A | 0.05
A13G A18G U72C | 0.31
C12U U26C A45G U60C U72C | 0.89
C12U A20G C29U U69C | 0.16
A13G A20G U54G U60C C79U U80C | 0.14
A13G C17U A56G C68G U76C | 0.08
C12U A21G A28U U60A | 0.14
A13G C14U G30A U43A C68U | 0.08
A13G A35U A47U U51C A56U U67C | 0.07
A13G A21G A28G A45U C68U A75U | 0.44
A13G A20G C38U | 0.37

Variant | self-cleavage
C12U A20G A21G A45G U69C U78C | 0.04
C12U U31A C40U | 0.46
A13G A18U A20G U26C U58A | 0.46
A13G A18U U41A A47G A64U U69A | 0.05
A13G C27A A65G | 0.21
A13C C17U U25C U54C A65G U66A U80C | 0.06
A13G A20U A65G | 0.57
A13G C29U G52U A57G | 0.11
A13G A21G U26G C29U A57U U67C | 0.03
A13G A15G A21G A45G U48C U72G U78G | 0.24
A13G A15U U49C | 0.05
A13G U25A C62U U67G U78C U80C | 0.04
A13G A64G U69A | 0.11
C12U G16A U41C A47G | 0.76
A13G A21U A35G | 0.34
A13G G33C A35U U54C | 0.09
A13G A21G U31A U43C A56G U60C A77G | 0.05
C12U A21U C40U U43A G61A | 0.14
A13G A64G U67C | 0.08
A13G A15U G19A A45U U74A | 0.24
A13G G16A U25C A56U G70A | 0.13
A13G A15U U31A A35U | 0.08
A13C U26A A28G | 0.58
A13G A28U A35G C71G | 0.08

Variant | self-cleavage
C12U U49C C62U | 0.05
A13C A15U C32A | 0.26
A13G A21G U41C U72A | 0.24
C12U U43A U67C | 0.42
A13G A35G A56G | 0.68
A13G A45C A64G U72C U78A | 0.16
A13G A18U U54A A56U U74G | 0.15
A13G A28U A45G A56U | 0.13
A13G A18G G33C U49A | 0.04
A13G A18G G33C U49A C81U | 0.31
C12U C23U U43A U54C A64G | 0.24
A13G A20G A35U U58A A77G | 0.12
C12U A56G A57G | 0.84
A13G G16C A77C | 0.24
A13C A35G A56U U60C | 0.27
A13C A56G A57U | 0.12
A13G A18G U26C C29U A45G U49C U80A | 0.13
A13G A57G U69A | 0.28
C12U C14U G30C A35U G63C | 0.17
A13G A20G A35G A45G | 0.5
C12U A45U A57G U80C | 0.47
C12U A21G U26C A47U U51C C81U | 0.21
A13G A21G G52C G63A U67A | 0.2
A13G A64U A65G | 0.15

Variant | self-cleavage
A13G A21U G22A U80C | 0.24
A13G A45G A65G | 0.32
A13G A28U C34G G63U | 0.08
A13G A18U C29A U48C | 0.05
A13G A64G U72C | 0.53
A13G U25C G46A | 0.21
A13G A28G C40A A45U U67C | 0.03
A13G U25C U49A U58C | 0.25
A13G A21U G22U C37A U51A | 0.14
A13G A15G A20G U43C U54A U76C A77G | 0
A13G A47U U67C | 0.15
A13G A35G U54C A56G U60A U78C | 0.08
A13C A15G C40A U41A U54C A64G | 0.07
A13G C29A A57U U72C | 0.26
A13G A35G A75G | 0.88
A13G A35G A75U | 1.04
C12U U26C U76A | 1.02
A13G A35G C59G | 0.13
C12U U41C U69C U72C | 0.58
A13G A28G A47G A56G U69A U72C | 0.15
C12U U25C U31A U48C | 0.18
A13G A45U A57U | 0.09
A13G A20G U26A U41C U48A U49C | 0.04
C12U A20G C29U U31A U51A U80C | 0.15

Variant | self-cleavage
A13G A18G A20G | 0.1
A13G A45G U72C | 0.54
A13G A18U U31C G55U U58G | 0.03
A13G A18G A28U U72C | 0.14
A13G C32A A45G A56G U58C G63A C71G | 0.05
C12U A35G U41C | 1.33
C12U U43C C59A U76C | 0.09
C12U A64G A75U | 1.28
A13G A20G U26C U72C | 0.47
A13G G53A A65U | 0.17
C12U A21G U26C U51C C81U | 0.45
A13G A15G U72C | 0.4
A13C A15U A56U | 0.38
A13G A56G U80C | 0.69
A13G A21G C32A C50U U51G A65U | 0.03
A13C U25C U60C U78C | 0.29
A13G A18G U48C U49C A64G U66C A75U | 0.13
A13G A28U A56U A64G U67C U76C | 0.08
A13G A18C C29U A35G U67C U72C U74A | 0.03
C12U A45G A57G | 0.99
C12U U41A A65G | 0.11
A13G A15U U67C | 0.11
C12U A20G U41C | 1.24
A13G U25A A28U U80C | 0.13

Variant | self-cleavage
A13G A15U U51C | 0.37
A13G A15U U26C U41C A77G U80C | 0.19
C12U A28G U74A | 1.25
A13G U25C A57U | 0.1
C12U C27A U49C U51C A64C | 0.05
A13G A18U A56G A64U | 0.15
C12U U41A U51C U69C | 0.06
A13G A18G G33A A64G | 0.06
C12U A21G U43A U80A | 1.09
A13G A15U G33A A47G A64G U74C | 0.12
A13G A20G A47G U54C | 0.39
A13C A20G U26C C29U U78C | 0.1
C12U G24U U26C G33A | 0.12
A13G A21G U31A U66C U78C | 0.24
A13G A20C A35U A64G U74C | 0.08
A13G A15G U26C C32A | 0.46
A13G A15G U51G A57U U72C | 0.5
C12U A21C A56G A57U U60C U72C | 0.13
A13G C17U U26C A45G G52C A64G | 0.22
A13G A18U C34G A64U | 0.17
A13C A21G U60C | 0.33
C12U A47U G63C U74C | 1.27
A13G A15U A35G U43C | 0.12
C12U U49A A64G | 0.5

Variant | self-cleavage
A13G A20U U69C | 0.16
A13G A15G A28G A35U A75G | 0.05
A13G A28C A64U | 0.07
A13G C14A A45G U54C U74C | 1.08
A13G A45G U69C | 0.27
A13G U25C A35G A56G | 0.12
C12U U26C U72C | 0.84
A13C A20G A45U | 0.34
A13G U25A U41A A56G U66C U67C | 0.07
A13G A21G U60A | 0.17
A13C G52A U54C C62A | 0.21
A13G A20G U58C G61A | 0.12
A13G A15U A21G G63U | 0.42
A13G A35U U41C | 0.12
A13G C39U U43G | 0.26
A13G C39U A65G | 0.11
A13G A18G C38U U43C U80C | 0.27
A13C A21G U78C | 0.6
C12U U26C A56G U60C U67A U72A | 0.15
A13G A15U U54G U69C | 0.09
A13G A45C A75U | 0.47
A13C A57G U66C U69C | 0.12
A13G C40A A45G U48G A56G A65G | 0.1
